{"source": "PubChem BioAssay AID1460", "about": "(National Center for Advancing Translational Sciences (NCATS), 2008)", "note": "The campaign covered roughly 270,000 compounds. About 5,800 (2.1%) were called active. The shares of active, inactive and inconclusive entries below differ from those in the screen. Calls come from the whole dose curve; as a rule, active = well fitted inhibition curve with a large enough effect; inconclusive = small, poorly fitted or top-dose-only effect; inactive = flat fitted curve, though single readings scatter. Where the call is inconclusive, the potency comes from a doubtful curve fit. Potency is the fitted concentration of half-maximal effect; tags give direction and shape of the fitted curve.", "data": [{"molecular_target": "Microtubule-associated protein tau (Homo sapiens) (UniProt P10636)", "sequence (P10636 whole entry, looked up, the tested form may be a part)": "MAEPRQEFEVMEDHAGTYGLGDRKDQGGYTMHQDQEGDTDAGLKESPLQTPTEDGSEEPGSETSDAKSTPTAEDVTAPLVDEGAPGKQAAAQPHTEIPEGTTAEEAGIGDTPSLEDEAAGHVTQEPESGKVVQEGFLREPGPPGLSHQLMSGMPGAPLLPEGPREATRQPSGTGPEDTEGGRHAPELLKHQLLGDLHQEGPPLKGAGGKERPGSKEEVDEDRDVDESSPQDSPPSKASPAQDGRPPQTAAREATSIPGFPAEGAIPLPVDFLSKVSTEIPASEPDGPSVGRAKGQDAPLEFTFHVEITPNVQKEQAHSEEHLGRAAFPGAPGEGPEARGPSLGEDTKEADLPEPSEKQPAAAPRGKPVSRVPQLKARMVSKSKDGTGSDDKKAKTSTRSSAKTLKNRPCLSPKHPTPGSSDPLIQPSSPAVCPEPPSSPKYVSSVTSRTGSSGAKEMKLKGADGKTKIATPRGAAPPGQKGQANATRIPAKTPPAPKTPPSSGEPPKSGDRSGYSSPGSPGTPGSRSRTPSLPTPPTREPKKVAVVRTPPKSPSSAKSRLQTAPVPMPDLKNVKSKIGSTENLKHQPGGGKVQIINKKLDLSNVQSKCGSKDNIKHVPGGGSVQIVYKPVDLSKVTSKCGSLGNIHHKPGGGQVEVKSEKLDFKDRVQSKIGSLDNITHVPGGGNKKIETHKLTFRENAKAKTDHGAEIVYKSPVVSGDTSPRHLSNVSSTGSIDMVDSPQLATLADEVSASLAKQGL", "test": "qHTS for Inhibitors of Tau Fibril Formation, Thioflavin T Binding; note: nearly all actives have a fitted effect of over 55% in size", "conditions": "recombinant tau K18 P301L (four-repeat tau fragment), heparin-induced fibrillization, ThT fluorescence; series mostly up to 57.4 µM", "procedure,_shortened": "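K18 P301L tau (15 uM + 0.24 uM Alexa 594-tagged), heparin 20 uM, NaOAc pH 7, 6 h 37 C; ThT 30 uM, 1 h RT, ex 450/em 510 nm.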", "values": [{"smiles": "Cc1ccc(SCC(=O)c2sc(-c3ccccc3)nc2C)cc1", "Potency": "inconclusive: 2.51 µM [inhibitor, full curve]"}, {"smiles": "CC(C)OCCCNc1ncc2c(n1)CC(c1ccccc1)CC2=O", "note": "(centres undefined)", "Potency": "inconclusive: 15.8 µM [inhibitor, partial curve]"}, {"smiles": "Cc1ccccc1C(=O)NC=C1C(=O)OC(C)(C)OC1=O", "Potency": "inactive"}, {"smiles": "CN1CCc2nc3sc(C(=O)Nc4c(F)cccc4F)c(N)c3cc2C1", "Potency": "inconclusive: 14.1 µM [inhibitor, partial curve]"}, {"smiles": "Cn1ccnc1SCC(=O)Nc1ccc2c(c1)OCO2", "Potency": "inconclusive: 28.2 µM [inhibitor, single point]"}, {"smiles": "CN(C)Cc1ccccc1-c1cncnc1NCc1cccs1", "Potency": "inactive"}, {"smiles": "COC(=O)c1ccc2c(c1)C(=O)/C(=C/c1ccc(O)cc1)O2", "Potency": "inconclusive: 3.16 µM [inhibitor, full curve]"}, {"smiles": "CC(=O)C1=C(O)C(=O)N(C)C1c1ccccc1[N+](=O)[O-]", "note": "(centres undefined)", "Potency": "active: 15.8 µM"}, {"smiles": "O=C(c1ccc(Cl)cc1)N1CCC(O)(CSc2ccc(Cl)cc2Cl)CC1", "Potency": "inactive"}, {"smiles": "COC(=O)c1ccc(NC(=S)NC(=O)c2cc(-c3ccccc3)nc3ccccc23)cc1", "Potency": "inconclusive: 1.41 µM [inhibitor, full curve]"}, {"smiles": "N#Cc1c(SCC(N)=O)nsc1SCc1ccc(Cl)cc1", "Potency": "inactive"}, {"smiles": "Cc1ccc2nc(Cl)c3cc(C(=O)NC4CCCCC4)sc3c2c1", "Potency": "inactive"}, {"smiles": "CC(C)NC(=S)N/N=C/c1cc(Br)ccc1O", "Potency": "inactive"}, {"smiles": "O=C(N/N=C/c1cccc(Oc2ccccc2)c1)c1cccc(Br)c1", "Potency": "inactive"}, {"smiles": "CCn1c(C)nc2cc(C(=O)N/N=C/c3ccc(N4CCOCC4)cc3)ccc21", "Potency": "active: 8.91 µM"}, {"smiles": "COC(=O)c1cc(O)cc(OC)c1Oc1cc(C)cc(O)c1C(=O)O", "Potency": "inconclusive: 17.8 µM [inhibitor, partial curve]"}, {"smiles": "Cc1oc(-c2ccccc2Cl)nc1CS(=O)(=O)CC(=O)NC(C)CCc1ccccc1", "note": "(centres undefined)", "Potency": "inconclusive: 11.2 µM [inhibitor, partial curve]"}, {"smiles": "COc1ccc2c(c1)C(=C(C#N)C#N)C(=O)N2CCc1ccccc1", "Potency": "active: 28.2 µM"}, {"smiles": "CNc1nnc(-c2cc3ccccc3oc2=O)s1", "Potency": "inconclusive: 7.94 µM [inhibitor, full curve]"}, {"smiles": "O=C(c1cccs1)N1CCN(Cc2ccccc2[N+](=O)[O-])CC1", "Potency": "inactive"}, {"smiles": "COc1cccc(NC(=O)c2nnn(Cc3cccc(C(F)(F)F)c3)c2N)c1", "Potency": "inactive"}, {"smiles": "Cc1ccc(NC(C)C(=O)N/N=C/c2c[nH]c3ccccc23)cc1", "note": "(centres undefined)", "Potency": "inconclusive: 20 µM [inhibitor, single point]"}, {"smiles": "O=C(O)COc1ccc(/C=N/NC(=O)c2ccc(-c3csc(Nc4ccc(Cl)cc4)n3)cc2)cc1", "Potency": "inconclusive: 1.78 µM [inhibitor, full curve]"}, {"smiles": "COc1cc(C2=NOC(C(=O)Nc3ccc(C(C)=O)cc3)C2)cc(OC)c1OC", "note": "(centres undefined)", "Potency": "inconclusive: 7.94 µM [inhibitor, partial curve]"}, {"smiles": "Cc1ccc(C)c(-n2c(N)c(C(N)=O)sc2=S)c1", "Potency": "inactive"}, {"smiles": "CCOCCCn1c(=S)[nH]c2ncccc2c1=O", "Potency": "inactive"}, {"smiles": "Cc1ccccc1NC(=O)CCc1c(C)nc2c(c1C)c(=O)n(C)c(=O)n2C", "Potency": "inactive"}, {"smiles": "O=C(Nc1ccc(N2CCCCC2)c(Cl)c1)c1ccc(N2CCOCC2)c([N+](=O)[O-])c1", "Potency": "inconclusive: 7.94 µM [inhibitor, partial curve]"}, {"smiles": "COc1ccc(-c2nc(NC(=O)c3nc4nccc(C)n4n3)sc2C)cc1", "Potency": "inconclusive: 28.2 µM [inhibitor, partial curve]"}, {"smiles": "O=C(Cc1ccc([N+](=O)[O-])cc1)Nc1ccc(Cl)cc1", "Potency": "inconclusive: 20 µM [inhibitor, single point]"}, {"smiles": "Cc1cc(=O)n2nc(N3CCC(C(=O)NCc4ccccc4Cl)CC3)sc2n1", "Potency": "inconclusive: 10 µM [inhibitor, partial curve]"}, {"smiles": "CCOC(=O)C(=NC1CCS(=O)(=O)C1)NNc1ccccc1Cl", "note": "(centres undefined)", "Potency": "inconclusive: 39.8 µM [inhibitor, single point]"}, {"smiles": "O=[N+]([O-])c1ccc(Sc2cccc3cccnc23)c([N+](=O)[O-])c1", "Potency": "inconclusive: 44.7 µM [inhibitor, partial curve, poor fit]"}, {"smiles": "O=C(OCCN1CCCCC1)c1ccc(Cl)cc1", "Potency": "inactive"}, {"smiles": "CCc1ccc(-c2cc(C(=O)N/N=C/c3ccccn3)[nH]n2)cc1", "Potency": "inconclusive: 39.8 µM [activator, single point]"}, {"smiles": "COc1ccc(NS(=O)(=O)c2cc(Cl)ccc2Cl)cc1S(=O)(=O)N1CCCCC1", "Potency": "inactive"}, {"smiles": "COc1ccc2c(c1)c(C(O)CN1CCC3(CC1)OCCO3)c(C)n2C", "note": "(centres undefined)", "Potency": "inconclusive: 25.1 µM [inhibitor, partial curve]"}, {"smiles": "COc1ccccc1OCCC(=O)OCC(=O)c1[nH]c(C)c(C(C)=O)c1C", "Potency": "inconclusive: 4.47 µM [inhibitor, partial curve, poor fit]"}, {"smiles": "COC(C/C=C/C(=O)COCc1ccccc1)OC", "Potency": "inconclusive: 3.98 µM [inhibitor, partial curve]"}, {"smiles": "Cc1cc(N=Cc2c(O)n(-c3ccc4c(c3)OCO4)c(=O)c3ccccc23)ccn1", "Potency": "inconclusive: 39.8 µM [inhibitor, single point]"}, {"smiles": "COC(=O)c1cc2c(C)cc3ccc(C)cn3c-2c1C(=O)OC", "Potency": "inconclusive: 17.8 µM [inhibitor, partial curve]"}, {"smiles": "Cc1cccc(Cn2c(-c3cccs3)nc3ccccc32)c1", "Potency": "inconclusive: 25.1 µM [inhibitor, partial curve]"}, {"smiles": "Cc1oc(-c2cccs2)nc1CS(=O)CC(=O)NCCc1ccccc1", "note": "(centres undefined)", "Potency": "inconclusive: 31.6 µM [inhibitor, partial curve]"}, {"smiles": "CC(C)=CCC/C(C)=C/Cc1c(O)ccc(C(=O)/C=C/c2ccc(O)cc2)c1O", "Potency": "active: 20 µM"}, {"smiles": "Cc1cc(C)cc(N(C)S(=O)(=O)c2nnc(NC(=O)COc3ccc(Cl)cc3)s2)c1", "Potency": "inactive"}, {"smiles": "CCC(=O)OCCNc1cc(Sc2nc3ccccc3[nH]2)c2nonc2c1[N+](=O)[O-]", "Potency": "active: 8.91 µM"}, {"smiles": "S=C(NCc1ccc(Cl)cc1)Nc1ccccc1Cl", "Potency": "inactive"}, {"smiles": "CCN1CCN(C(c2cccnc2)c2cc(Cl)c3cccnc3c2O)CC1", "note": "(centres undefined)", "Potency": "inconclusive: 20 µM [inhibitor, partial curve]"}, {"smiles": "CCn1ccc2cc(S(=O)(=O)N3CCCN(C(=O)Nc4ccc(C)cc4)CC3)ccc21", "Potency": "inactive"}, {"smiles": "Oc1oc(-c2ccc(Br)cc2)nc1/C=N/c1ccccn1", "Potency": "inconclusive: 12.6 µM [inhibitor, partial curve, poor fit]"}, {"smiles": "CCOc1ccc(/C=C2\\SC(=S)NC2=O)cc1OC", "Potency": "inconclusive: 15.8 µM [inhibitor, partial curve]"}, {"smiles": "COC(=O)c1sccc1N/N=C(\\C)c1ccc(F)c(Cl)c1", "Potency": "inconclusive: 4.47 µM [inhibitor, full curve]"}, {"smiles": "Cc1cccc(CNc2ncnc3ccc(-c4ccoc4)cc23)c1", "Potency": "inconclusive: 25.1 µM [inhibitor, partial curve]"}, {"smiles": "CCC1CCCCN1CCCNC(=O)Cn1nc(-c2ccccc2)ccc1=O", "note": "(centres undefined)", "Potency": "inconclusive: 20 µM [inhibitor, partial curve]"}, {"smiles": "Cc1ccc(C)c2sc(N3CCN(C(=O)c4ccco4)CC3)nc12", "Potency": "inconclusive: 14.1 µM [inhibitor, partial curve, poor fit]"}, {"smiles": "Cc1ccc(NC(=O)Cn2ncc3c4ccccc4n(Cc4ccccc4)c3c2=O)cc1Cl", "Potency": "inactive"}, {"smiles": "O=C(CSCc1ccccc1)N1CCN(c2cccc(C(F)(F)F)c2)CC1", "Potency": "inconclusive: 28.2 µM [inhibitor, partial curve]"}, {"smiles": "Cc1ccc(/C=C/C(=O)Nc2ccc(N(C)C)cc2)o1", "Potency": "active: 8.91 µM"}, {"smiles": "CCOc1cc(C(=S)N2CCC(O)CC2)ccc1OS(=O)(=O)c1ccc(Br)cc1", "Potency": "inactive"}, {"smiles": "Cc1ccc(C)c(N2CCN(C(=O)c3csc4ccccc34)CC2)c1", "Potency": "inconclusive: 22.4 µM [inhibitor, single point]"}, {"smiles": "CC(=O)OC[C@H]1O[C@H](CCO/N=C(\\C)CCN2CCCc3nc(C)c(C)cc32)C=C[C@@H]1OC(C)=O", "Potency": "inconclusive: 22.4 µM [inhibitor, single point]"}, {"smiles": "CCC1=NN2C(=N)/C(=C\\c3ccc(SCc4ccco4)o3)C(=O)N=C2S1", "Potency": "active: 10 µM"}, {"smiles": "Cc1ccccc1-c1nnc(SCC(=O)N2CCCc3ccccc32)o1", "Potency": "inactive"}, {"smiles": "CC[N+](CC)(CC)CCOc1ccc(/C=C\\c2ccccc2)cc1", "Potency": "inactive"}, {"smiles": "CN(CCOC(=O)c1ccco1)Cc1ccccc1", "Potency": "inactive"}, {"smiles": "NS(=O)(=O)c1ccc(Nc2ncccc2[N+](=O)[O-])cc1", "Potency": "inconclusive: 15.8 µM [inhibitor, partial curve]"}, {"smiles": "CCOc1ccc(OCc2ccc(C(=O)Nc3ccc(Cl)cn3)o2)cc1", "Potency": "inconclusive: 1.58 µM [inhibitor, full curve]"}, {"smiles": "CN(Cc1ccccc1)c1ccc(N2C(=O)CCCC2=O)cc1[N+](=O)[O-]", "Potency": "inactive"}, {"smiles": "COc1ccc(N/N=C(\\C#N)C(=O)NCCc2ccc(OC)c(OC)c2)cc1", "Potency": "inconclusive: 0.316 µM [inhibitor, full curve]"}, {"smiles": "COc1ccc(-c2nc(C)c(CCNC(=O)c3cccs3)s2)cc1", "Potency": "inconclusive: 1.58 µM [inhibitor, full curve]"}, {"smiles": "Nc1ccc(C2CCCc3nonc32)c2nonc12", "note": "(centres undefined)", "Potency": "inconclusive: 31.6 µM [inhibitor, partial curve]"}, {"smiles": "Cc1cc2nc(-c3cccc(NC(=O)COc4ccc(C(C)C)cc4)c3)oc2cc1C", "Potency": "inactive"}, {"smiles": "Cc1ccc(/C=N/NC(=O)Cc2c[nH]c3ccccc23)c(C)c1", "Potency": "inconclusive: 25.1 µM [inhibitor, partial curve]"}, {"smiles": "Cn1nc([N+](=O)[O-])c(C(C#N)c2ccccn2)c(Cl)c1=O", "note": "(centres undefined)", "Potency": "active: 8.91 µM"}]}]}
